What all share (assay): Indirect ELISA, antigen-binding specificity of C1s recombinant antibody
Common to all, as to settings: OD 450 nm, FIG. 5

Assay [1] has as its target T1, double-stranded activated C1s protein (Homo sapiens, UniProt P09871).
T1 construct: purchased Complement Technology
T1 sequence (P09871 16-437 limits assumed): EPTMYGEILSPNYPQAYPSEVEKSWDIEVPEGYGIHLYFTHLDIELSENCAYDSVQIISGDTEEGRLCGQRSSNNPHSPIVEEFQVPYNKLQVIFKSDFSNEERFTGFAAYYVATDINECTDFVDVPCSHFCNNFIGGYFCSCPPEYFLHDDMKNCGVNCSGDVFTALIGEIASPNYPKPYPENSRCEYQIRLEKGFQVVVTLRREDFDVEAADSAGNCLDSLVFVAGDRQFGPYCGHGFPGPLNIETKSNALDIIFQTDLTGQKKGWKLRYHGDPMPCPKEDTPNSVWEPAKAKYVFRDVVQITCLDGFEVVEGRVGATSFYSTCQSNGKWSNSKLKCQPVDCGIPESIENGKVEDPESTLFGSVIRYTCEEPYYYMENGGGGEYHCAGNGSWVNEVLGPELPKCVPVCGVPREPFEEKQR
T1 sequence (P09871 438-688 limits assumed): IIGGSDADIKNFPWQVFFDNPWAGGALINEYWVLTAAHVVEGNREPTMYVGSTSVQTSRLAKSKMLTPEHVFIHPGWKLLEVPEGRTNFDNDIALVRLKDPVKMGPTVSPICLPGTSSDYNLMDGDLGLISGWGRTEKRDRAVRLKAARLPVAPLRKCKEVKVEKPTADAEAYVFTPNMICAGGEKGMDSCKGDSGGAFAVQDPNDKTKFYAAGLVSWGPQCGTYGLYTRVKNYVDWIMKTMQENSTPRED
The procedure: (§1) In this example, the antigen-binding specificity of the C1s recombinant antibody was analyzed by an indirect ELISA method according to the principle of the specificity detection of the C1s recombinant antibody shown in FIG. 4. An analysis method included the following steps:
(§2) 200 μL (1 μg/ml) of C1s antigen (single-stranded unactivated C1s protein, double-stranded activated C1s protein, or C1r protein) was added respectively to wells of a microtiter plate, and the microtiter plate was gently shaken to make the antigen cover a well bottom of the microtiter plate. Incubation was performed overnight at 4° C. After washing the plate 3 times with a warm PBS, 200 μL of a blocking solution (10 mM PBS, 1% BSA, 0.1% casein) was added to perform blocking. Incubation was next performed at 37° C. for 1 h. The plate was washed 5 times with PBS. 100 μL of the C1s recombinant antibody was added in each well (an initial concentration of a first well was 10 μg/mL, then diluted down to 7 wells according to a ratio of ¼ gradient to set up duplicate wells), incubation was performed at 37° C. for 1 h. The liquid in the microtiter plate was spin-dried, and the plate was washed with 200 μL of warm PBS 5 times. 100 μL of a diluted secondary antibody (Goat anti-Human IgG-HRP) was added to each well of the microtiter plate. Incubation was performed for 30 min at 37° C. The liquid in the microtiter plate was spin-dried, and the plate was washed with 200 μL of warm PBS 5 times. 100 μL of a chromogenic solution (TMB) was added to each well for a chromogenic reaction, and after incubation at 37° C. for 10 min, 50 μL of a stop solution (0.25 M HCl) was finally added to terminate the chromogenic reaction. An optical density (OD) was read at 450 nm on the microplate reader.

Assay [2] has as its target T2, single-stranded unactivated C1s protein (Homo sapiens, UniProt P09871).
T2 construct: purchased Complement Technology
T2 sequence (P09871 16-688): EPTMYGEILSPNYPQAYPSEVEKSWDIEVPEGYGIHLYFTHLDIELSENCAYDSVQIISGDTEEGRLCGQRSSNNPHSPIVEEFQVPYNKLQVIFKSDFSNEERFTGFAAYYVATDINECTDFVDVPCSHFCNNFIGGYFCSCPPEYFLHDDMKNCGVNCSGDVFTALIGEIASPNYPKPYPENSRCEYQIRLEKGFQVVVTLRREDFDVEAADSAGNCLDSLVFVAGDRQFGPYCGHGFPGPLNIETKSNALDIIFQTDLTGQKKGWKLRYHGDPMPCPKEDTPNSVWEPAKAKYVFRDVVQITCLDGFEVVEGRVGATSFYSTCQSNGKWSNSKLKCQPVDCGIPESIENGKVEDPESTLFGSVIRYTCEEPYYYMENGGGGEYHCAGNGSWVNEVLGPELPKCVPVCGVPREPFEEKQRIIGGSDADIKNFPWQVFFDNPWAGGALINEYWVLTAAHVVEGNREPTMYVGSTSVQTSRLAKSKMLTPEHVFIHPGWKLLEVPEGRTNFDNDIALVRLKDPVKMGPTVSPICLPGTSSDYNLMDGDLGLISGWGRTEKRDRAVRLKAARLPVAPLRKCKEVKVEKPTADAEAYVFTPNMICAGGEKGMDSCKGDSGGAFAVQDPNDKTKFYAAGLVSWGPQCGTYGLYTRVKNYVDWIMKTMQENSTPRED
The procedure:
as §1, §2

Assay [3] deals with T3, C1r protein (Homo sapiens, UniProt P00736).
T3 construct: purchased Complement Technology
T3 sequence (P00736 18-705): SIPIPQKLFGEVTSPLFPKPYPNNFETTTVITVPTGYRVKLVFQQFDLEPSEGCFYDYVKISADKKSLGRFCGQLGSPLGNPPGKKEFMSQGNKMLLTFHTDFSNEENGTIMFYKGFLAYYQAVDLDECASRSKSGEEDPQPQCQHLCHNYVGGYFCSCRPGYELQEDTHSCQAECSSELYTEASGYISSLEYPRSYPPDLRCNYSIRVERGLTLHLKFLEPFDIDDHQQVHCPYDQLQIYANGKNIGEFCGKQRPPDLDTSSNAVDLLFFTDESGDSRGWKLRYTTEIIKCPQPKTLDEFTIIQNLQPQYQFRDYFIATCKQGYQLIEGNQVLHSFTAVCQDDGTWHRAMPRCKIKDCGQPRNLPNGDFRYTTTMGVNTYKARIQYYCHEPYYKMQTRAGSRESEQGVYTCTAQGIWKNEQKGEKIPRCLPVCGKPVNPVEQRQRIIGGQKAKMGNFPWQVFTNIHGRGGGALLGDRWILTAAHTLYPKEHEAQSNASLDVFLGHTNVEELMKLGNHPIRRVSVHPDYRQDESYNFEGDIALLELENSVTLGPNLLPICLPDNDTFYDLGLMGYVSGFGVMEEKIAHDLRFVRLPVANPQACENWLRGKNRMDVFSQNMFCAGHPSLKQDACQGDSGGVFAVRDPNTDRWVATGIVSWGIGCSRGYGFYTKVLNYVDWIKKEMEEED
The procedure:
as §1, §2

B1: C1s recombinant antibody: Recombinant antibody, heavy chain SEQ ID NO: 1, light chain SEQ ID NO: 2, expressed in HEK293T system (antibody)
heavy: EVQLVESGGGLVKPGGSLRLSCAASGFTFSNYAMSWVRQAPGKGLEWVATISSGGSHTYYLDSVKGRFTISRDNSKNTLYLQMNSLRAEDTALYYCARLFTGYAMDYWGQGTLVTVSSASTKGPSVFPLAPCSRSTSESTAALGCLVKDYFPEPVTVSWNSGALTSGVHTFPAVLQSSGLYSLSSVVTVPSSSLGTKTYTCNVDHKPSNTKVDKRV[human IgG4 Fc with changes not spelt out]
light: QIVLTQSPATLSLSPGERATMSCTASSSVSSSYLHWYQQKPGKAPKLWIYSTSNLASGVPSRFSGSGSGTDYTLTISSLQPEDFATYYCHQYYRLPPITFGQGTKLEIKRTVAAPSVFIFPPSDEQLKSGTASVVCLLNNFYPREAKVQWKVDNALQSGNSQESVTEQDSKDSTYSLSSTLTLSKADYEKHKVYACEVTHQGLSSPVTKSFNRGEC
modifications: The sequence is synthetized.
Consider B1, for which the binding ability result in assay [1] was “strong binding ability”; in assay [2], “weak binding ability”; in assay [3], “no binding ability”.

The values above are taken from patent US20250012721A1, “FLUORESCENCE DETECTION KIT FOR ACTIVATED COMPLEMENT C1s, DETECTION METHOD USING SAME, AND USE THEREOF” (JIANGSU UNIVERSITY, priority 2022, published 2025).
